According to paper PMC4336329 (PLoS ONE, 2015):
Screen size: about 310,000 compounds; about 14,000 (4.5%) showed an effect of 50% or more. The effect is printed as a negative number. The list shows a part of the results.
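Further: peak tail current of the secondary pulse compared with the same well before compound.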

These compounds were tested against human ether-à-go-go-related gene (hERG) potassium channel (human, UniProt Q12809) (assay: primary screen, population patch clamp on CHO cells stably expressing hERG).
human ether-à-go-go-related gene (hERG) potassium channel, sequence (Q12809 whole entry, looked up): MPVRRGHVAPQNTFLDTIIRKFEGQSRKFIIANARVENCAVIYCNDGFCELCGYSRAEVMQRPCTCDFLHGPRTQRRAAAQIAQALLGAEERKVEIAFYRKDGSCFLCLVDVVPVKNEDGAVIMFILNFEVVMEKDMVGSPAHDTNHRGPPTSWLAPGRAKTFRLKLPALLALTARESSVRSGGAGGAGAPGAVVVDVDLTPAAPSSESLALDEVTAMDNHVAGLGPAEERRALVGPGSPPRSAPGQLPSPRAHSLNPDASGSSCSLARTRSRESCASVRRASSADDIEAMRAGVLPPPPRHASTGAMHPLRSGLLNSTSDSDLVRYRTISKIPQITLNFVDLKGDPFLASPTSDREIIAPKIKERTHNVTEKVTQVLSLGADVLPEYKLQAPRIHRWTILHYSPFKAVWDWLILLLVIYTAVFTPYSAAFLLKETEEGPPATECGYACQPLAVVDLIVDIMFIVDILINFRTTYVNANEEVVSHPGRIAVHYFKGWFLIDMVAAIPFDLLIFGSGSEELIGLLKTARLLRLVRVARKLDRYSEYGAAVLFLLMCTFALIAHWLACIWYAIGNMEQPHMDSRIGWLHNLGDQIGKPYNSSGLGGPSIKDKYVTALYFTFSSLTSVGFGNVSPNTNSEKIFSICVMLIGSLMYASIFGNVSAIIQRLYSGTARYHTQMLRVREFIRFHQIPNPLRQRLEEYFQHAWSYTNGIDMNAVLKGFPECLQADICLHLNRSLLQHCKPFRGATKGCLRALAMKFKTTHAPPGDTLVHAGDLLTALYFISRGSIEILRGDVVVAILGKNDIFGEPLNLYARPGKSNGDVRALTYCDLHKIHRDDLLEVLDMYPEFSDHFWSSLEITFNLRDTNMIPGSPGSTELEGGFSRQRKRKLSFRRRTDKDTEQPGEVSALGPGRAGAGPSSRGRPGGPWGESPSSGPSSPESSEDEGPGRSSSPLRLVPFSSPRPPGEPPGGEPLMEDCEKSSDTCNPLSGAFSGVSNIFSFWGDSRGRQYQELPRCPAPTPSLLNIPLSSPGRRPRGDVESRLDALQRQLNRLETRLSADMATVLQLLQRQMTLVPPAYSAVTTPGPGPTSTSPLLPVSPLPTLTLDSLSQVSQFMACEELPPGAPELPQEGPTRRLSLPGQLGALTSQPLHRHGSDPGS
For `Cc1sc2ncnc(N3CCC(C(=O)Nc4ccc(S(N)(=O)=O)cc4)CC3)c2c1C`, the “hERG current change (%, negative = inhibition) at 10uM” value was -20.2%. `Cc1cccc(NS(=O)(=O)c2ccc3[nH]c(=O)cc(C(=O)O)c3c2)c1` was tested, and the “hERG current change (%, negative = inhibition) at 10uM” value was 13.6%. In the case of `CC(=O)Oc1cc(O)c2c(=O)c(OC(C)=O)c(-c3ccc(OC(C)=O)c(OC(C)=O)c3)oc2c1`, the “hERG current change (%, negative = inhibition) at 10uM” value is reported as 8.17%. With `CCCn1nnnc1COc1ccc(C(N)=O)cc1` the “hERG current change (%, negative = inhibition) at 10uM” value was 14.7%. With `CC(NC(=S)Nc1ccc(S(N)(=O)=O)cc1)c1ccc2c(c1)OCO2` (centres unmarked) the “hERG current change (%, negative = inhibition) at 10uM” value was 5.78%. With `c1ccc(-c2nnc3sc(-c4ccncc4)nn23)cc1` the “hERG current change (%, negative = inhibition) at 10uM” value was -18.1%. For `CCN(CC(=O)Nc1ccc(NC(C)=O)cc1)C(=O)/C=C/c1c(C)nn(-c2ccc(F)cc2)c1C`, the “hERG current change (%, negative = inhibition) at 10uM” value was 9.95%. `Cc1ccc(C2Nc3ccccc3C(=O)N2Cc2ccco2)cc1` (centres unmarked) was tested, and the “hERG current change (%, negative = inhibition) at 10uM” value was -32.5%. For `C/C(=N\Nc1cc(Cl)nc(C)n1)c1ccccc1`, the “hERG current change (%, negative = inhibition) at 10uM” value was -3.88%. With `COC(=O)COc1ccc2c(c1)O/C(=C\c1ccco1)C2=O` the “hERG current change (%, negative = inhibition) at 10uM” value was 14.2%. In the case of `CCOc1ccc2nnc(-c3ccc(Br)cc3)n2n1`, the “hERG current change (%, negative = inhibition) at 10uM” value is reported as -5.3%. For `N#Cc1c(C(F)(F)F)cc(-c2ccc(F)cc2)nc1SCC(=O)O`, the “hERG current change (%, negative = inhibition) at 10uM” value was 6.06%. For `COc1ccc(CCNC(=O)CCC(=O)N2CCN(S(=O)(=O)c3ccc(Cl)cc3)CC2)cc1OC`, the “hERG current change (%, negative = inhibition) at 10uM” value was -11%. In the case of `Cc1ccc(OCC(=O)c2cc(C)n(C3CC3)c2C)c([N+](=O)[O-])n1`, the “hERG current change (%, negative = inhibition) at 10uM” value is reported as -6.03%. For `O=C(Cc1c[nH]c2ccccc12)NCc1ccc(Cl)cc1Cl`, the “hERG current change (%, negative = inhibition) at 10uM” value was -0.423%. `CCOC(=O)C1(CC2CC2)CCN(C(=O)c2cccnc2C)CC1` was tested, and the “hERG current change (%, negative = inhibition) at 10uM” value was 9.7%. `CCOc1ccc(N2C(=O)CN(CC(=O)OC)C2=S)cc1` was tested, and the “hERG current change (%, negative = inhibition) at 10uM” value was 0.546%. For `C=C(C)CSc1nc2nc(C)c(Br)cc2[nH]1`, the “hERG current change (%, negative = inhibition) at 10uM” value was -8.11%. In the case of `O=C(OCc1cc2ccccc2[nH]c1=O)c1ccco1`, the “hERG current change (%, negative = inhibition) at 10uM” value is reported as 10.8%. `CCC(=O)NCCN1CCN(C(=O)CC)CC1` was tested, and the “hERG current change (%, negative = inhibition) at 10uM” value was 3.27%. In the case of `OCCNCCOc1ccccc1F`, the “hERG current change (%, negative = inhibition) at 10uM” value is reported as 11.1%. In the case of `CCOc1ccccc1NC(=O)C1(S(=O)(=O)c2ccc(Cl)cc2)CC1`, the “hERG current change (%, negative = inhibition) at 10uM” value is reported as 2.96%. In the case of `CC(=O)Nc1cccc(-c2csc(N)n2)c1`, the “hERG current change (%, negative = inhibition) at 10uM” value is reported as 18.1%. In the case of `CCOc1cc(C(=O)Nc2ccncc2)cc(OCC)c1OCC`, the “hERG current change (%, negative = inhibition) at 10uM” value is reported as 0.149%. With `Cc1ccccc1NC(=O)c1ccc(F)c(S(=O)(=O)NCC2CCCO2)c1` (centres unmarked) the “hERG current change (%, negative = inhibition) at 10uM” value was 14.2%. With `CCC(=O)c1ccc(OCC(O)CN(CCc2ccccc2)Cc2ccccc2)cc1.Cl` (centres unmarked) the “hERG current change (%, negative = inhibition) at 10uM” value was 5.17%. For `Cc1nc2ncnn2c(N2CCCC(C(=O)Nc3ccccc3Br)C2)c1C` (centres unmarked), the “hERG current change (%, negative = inhibition) at 10uM” value was -60.2%. `COc1ccc(NC(=O)C2CCC(CNS(=O)(=O)c3cccs3)CC2)cc1OC` (centres unmarked) was tested, and the “hERG current change (%, negative = inhibition) at 10uM” value was -12%. In the case of `O=C(NCCCCCNC(=O)c1cccnc1)c1cccnc1`, the “hERG current change (%, negative = inhibition) at 10uM” value is reported as -0.498%. With `O=C(NC1CCN(Cc2ccccc2)CC1)C1CCN(S(=O)(=O)c2ccccc2)CC1` the “hERG current change (%, negative = inhibition) at 10uM” value was -28.8%. In the case of `COc1cc(/C=C(\C#N)C(=O)NCC2CCCO2)c([N+](=O)[O-])cc1OC` (centres unmarked), the “hERG current change (%, negative = inhibition) at 10uM” value is reported as 1.12%. With `CCOC(=O)c1c(Cc2ccc(Cl)cc2)c[nH]c1C` the “hERG current change (%, negative = inhibition) at 10uM” value was 12.3%. `CCOC(=O)Cc1csc(NC(=O)CSc2nnnn2-c2ccc(C)cc2C)n1` was tested, and the “hERG current change (%, negative = inhibition) at 10uM” value was 11.1%. For `CCOc1ccc(OCC(=O)N(C)c2c(N)n(Cc3ccccc3)c(=O)[nH]c2=O)cc1`, the “hERG current change (%, negative = inhibition) at 10uM” value was 5.49%. `CCOC(=O)c1cc(C(O)(C(=O)OC)C(F)(F)F)c(/N=C/N(C)C)o1` (centres unmarked) was tested, and the “hERG current change (%, negative = inhibition) at 10uM” value was -6.94%. For `COc1ccc(CCNC(=O)C2CC(c3ccc(C(F)(F)F)cc3)=NO2)cc1` (centres unmarked), the “hERG current change (%, negative = inhibition) at 10uM” value was -6.74%. `CCOCC(=O)Nc1ccccc1C(=O)OCC` was tested, and the “hERG current change (%, negative = inhibition) at 10uM” value was -9.13%. With `O=C(CC(=O)Nc1ccccn1)Nc1ccccn1` the “hERG current change (%, negative = inhibition) at 10uM” value was 5.13%. `Cn1c(CCNC(=O)c2cc(COc3ccc(F)c(F)c3)on2)nc2ccccc21` was tested, and the “hERG current change (%, negative = inhibition) at 10uM” value was -13.8%. For `COC(=O)C1=C(C(=O)OC)[C@@H]2N(C)c3ccccc3[C@@]23C[C@@H](C(=O)OC)N(C(=O)c2cccs2)C3=N1`, the “hERG current change (%, negative = inhibition) at 10uM” value was -10.1%. In the case of `COc1ccc(-c2cc(=O)c3c(OC)c(OC)c(OC)cc3o2)cc1`, the “hERG current change (%, negative = inhibition) at 10uM” value is reported as -16.5%. With `CCOc1ccc(S(=O)(=O)N(CC)CC(=O)NC2CC2)cc1` the “hERG current change (%, negative = inhibition) at 10uM” value was -7.6%. With `CCOC(=O)C1(C)NC(c2ccc(N(C)C)cc2)C2C(=O)N(CC)C(=O)C21` (centres unmarked) the “hERG current change (%, negative = inhibition) at 10uM” value was 2.31%. `Cc1ccc(C(=O)N2CCN=C2SCc2ccc([N+](=O)[O-])cc2)cc1C` was tested, and the “hERG current change (%, negative = inhibition) at 10uM” value was 2.84%. In the case of `CCN1C(=O)/C(=C2/C=Cc3ccccc3N2C)OC1=S`, the “hERG current change (%, negative = inhibition) at 10uM” value is reported as 9.46%. In the case of `CCCCN(C)Cc1c(O)ccc2c(=O)c(-c3ccccc3OC)coc12`, the “hERG current change (%, negative = inhibition) at 10uM” value is reported as 9.27%. In the case of `Brc1cnc2nc(SCc3nc4ccccc4[nH]3)[nH]c2c1`, the “hERG current change (%, negative = inhibition) at 10uM” value is reported as 11.3%. With `NC(=O)c1ccc(NC(=O)CCCN2C(=O)NC3(CCCC3)C2=O)cc1` the “hERG current change (%, negative = inhibition) at 10uM” value was -4.73%. `CCOC(=O)c1ccc(NC(=O)CCOc2ccccc2)cc1` was tested, and the “hERG current change (%, negative = inhibition) at 10uM” value was -0.298%. In the case of `C/C(=N\NC(=O)c1cccc([N+](=O)[O-])c1)c1cccc(NC(=O)C2CC2)c1`, the “hERG current change (%, negative = inhibition) at 10uM” value is reported as 3.52%. With `CC(C)CC1Nc2ncnc(N3CCCCC3)c2N(Cc2ccc(Br)cc2)C1=O.O=C(O)C(F)(F)F` (centres unmarked) the “hERG current change (%, negative = inhibition) at 10uM” value was -3.39%. `Cc1ccc(C2CC(=O)C(C=NCCN3CCN(C(=O)Cc4ccccc4)CC3)=C(O)C2)cc1` (centres unmarked) was tested, and the “hERG current change (%, negative = inhibition) at 10uM” value was -42.8%. For `COc1ccc(-c2nc3ccc(C(=O)NCC(OC)OC)cc3nc2-c2ccc(OC)c(OC)c2)cc1OC`, the “hERG current change (%, negative = inhibition) at 10uM” value was -2.59%. `CNC(=O)c1ccc(NC(=O)c2ccc3c(=O)n4c(nc3c2)CCC4)cc1` was tested, and the “hERG current change (%, negative = inhibition) at 10uM” value was 15.5%. In the case of `O=C(Nc1ccon1)c1ccccc1F`, the “hERG current change (%, negative = inhibition) at 10uM” value is reported as -3.99%. With `O=C(NCCCN1CCCC1=O)c1c(O)nc2sccn2c1=O` the “hERG current change (%, negative = inhibition) at 10uM” value was 5.04%.
